Here are results for 95 compounds from PubChem BioAssay AID485344 (National Center for Advancing Translational Sciences (NCATS), 2010).

In all, about 340,000 compounds went through this assay and about 6,900 (2%) were called active. Cut-off read from the data, not from the text of the source: active = inhibition above about 30%; inactive = below that, where a call was filed. The entries are a selection whose mix differs from that of the whole data set. The source gives no active or inactive call for entries shown without one.

For the experiment, the target named is D(2) dopamine receptor (Homo sapiens) (UniProt P14416). Briefly: HTS Assay for Allosteric Antagonists of the Human D2 Dopamine Receptor: Primary Screen for Antagonists. Note: 0% is about no effect. As to conditions: HEK293 TREx D2 cells, calcium flux, dopamine EC80; at 10 µM; stronger effect = higher value. The procedure, abridged: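 Antagonism is scored as inhibition of an EC80 dopamine-evoked calcium signal in a force-coupled, tetracycline-inducible HEK293 T-REx D2 line, with compound present 180 s before agonist.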
Chain of UniProt P14416 (P14416 whole entry, looked up): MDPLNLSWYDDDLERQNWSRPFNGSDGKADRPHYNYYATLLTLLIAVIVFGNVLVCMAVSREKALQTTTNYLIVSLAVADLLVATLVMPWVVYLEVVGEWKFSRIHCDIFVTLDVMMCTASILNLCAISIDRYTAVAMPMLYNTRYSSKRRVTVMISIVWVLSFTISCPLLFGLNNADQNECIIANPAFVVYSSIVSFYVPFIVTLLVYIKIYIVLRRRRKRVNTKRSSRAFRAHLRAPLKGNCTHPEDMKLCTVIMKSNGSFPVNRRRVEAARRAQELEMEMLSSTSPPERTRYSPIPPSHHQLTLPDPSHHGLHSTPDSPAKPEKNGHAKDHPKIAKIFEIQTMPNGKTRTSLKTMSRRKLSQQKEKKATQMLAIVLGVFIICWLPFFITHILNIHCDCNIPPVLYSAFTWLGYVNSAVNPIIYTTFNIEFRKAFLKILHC
With `Cc1ccc(-c2nc(N3CCN(c4ccccc4Cl)CC3)c3ccccc3n2)cc1`, the inhibition is 11.6%. `CCOc1ccc(NC(=O)C(NC(=O)C2CCC(C)CC2)C(C)C)cc1` (stereo not given): the inhibition worked out at 21.6%. For the compound `CN(C)CCCNc1oc(-c2ccccc2Cl)nc1S(=O)(=O)c1ccccc1`, the inhibition is active: 86%.

Turning to `CCOC(=O)c1cc(-c2ccccc2)n(CC(=O)N(C)c2ccc(OC)cc2)c1C`, the inhibition is 2.93%. For `COc1ccc(CNCC2COc3ccccc3O2)cc1` (stereo not given) the value was active: 140%; for `CCCCN(CCCC)CC(O)Cn1cc(/C=C/C(=O)c2ccccc2)c2ccccc21` (stereo not given), 12.1%; for `O=c1c(=O)n(-c2cccc(Cl)c2)ccn1Cc1cccc(F)c1`, 1.33%.

With `COc1cccc2c1cc1c(=O)n(CC(=O)NC3CC3)nc(C)n12`, the inhibition worked out at 13.3%. `COc1cccc(-c2nc(CSCC(=O)NCCc3ccc(Cl)cc3)c(C)o2)c1`: the inhibition stood at 4.42%. Next, `COCCNC(=O)CCCN1C(=O)c2ccccc2Sc2ncccc21`: -6.28%. On to `Cc1ccc(NC(=O)c2oc3ccc(S(=O)(=O)N(C)C4CCCCC4)cc3c2C)cc1Cl`, for which the inhibition was determined as 27.7%. Next, `COc1ccc(-c2nc(CSCC(=O)N3CCN(c4ccc(OC)cc4)CC3)c(C)o2)cc1`: -18.1%; `O=S(=O)(c1cccc(F)c1)N1CCC(c2nc3ccccc3s2)CC1`: -20.6%; `CCS(=O)(=O)N1CC(=O)N(c2cccc(Cl)c2C)C(C)(C(=O)NC2CCCCC2)C1` (stereo not given): -12.1%. On to `CN(C)CCCn1c(SCC(=O)Nc2sc3c(c2C#N)CCCC3)nnc1-c1ccncc1`, for which the inhibition is active: 39.1%. In the case of `CCN(CCCNC(=O)c1cc2cc3ccc(C)cc3nc2s1)c1ccccc1`, the inhibition was -27.9%. For `CCCN(c1ccccc1CC)S(=O)(=O)c1ccc2c(c1)CC(C)N2C(=O)C1CC1` (stereo not given) the value was -6.75%. In the case of `CCOC(=O)C1CCC(CN(Cc2ccc(Cl)cc2)S(=O)(=O)c2ccc(Br)cc2)CC1` (stereo not given), the inhibition was -10.4%. As for `CN1C(=O)C2(SCC(=O)N2c2cccc(C(F)(F)F)c2)c2ccccc21` (stereo not given), the inhibition is -7.76%.

For `COc1ccc(-c2onc(C)c2C)cc1S(=O)(=O)N(C)Cc1ccco1`, the inhibition turned out to be 2.25%. Next, `CCOC(=O)C1CCN(CC(=O)N2CCCc3c2c(=O)oc2ccc(OCc4ccccc4)cc32)CC1`: -5.62%; `CCS(=O)(=O)N1CCc2cc(C(=O)NCCc3ccccc3)ccc21`: -6.3%; `CCCN1CCN(CCNC(=O)Nc2ccc(OC)c(OC)c2)CC1`: -18.8%. On to `CCOc1ccc(NC(=O)c2cn(C)c(=O)c3cc(OC)c(OC)cc23)cc1`, for which the inhibition was -10.5%.

For `COc1ccc(CCNc2ncnc3c2cnn3-c2cccc(Cl)c2)cc1`, the inhibition was -14.5%. Next, `Cc1cc(C)n(CCc2nc3c4ccccc4nc(N4CCN(c5ccccc5F)CC4)n3n2)n1`: 10.7%; `C#CC(C)(CC)NC(=O)c1cnn2c(C(F)F)cc(-c3ccccc3OC)nc12` (stereo not given): -12.7%; `Cc1ccc(NC(=O)/C(C#N)=C/c2ccc(C)o2)cc1`: -1.14%. On to `Cc1ccc(Cn2ccnc2SCC(=O)NCc2ccc(F)cc2)cc1`, for which the inhibition is -3.68%. Turning to `COc1ccc(NC(=O)CSc2nc3ccccc3n2CC(=O)N(C)c2ccc(F)cc2)cc1`, the inhibition stood at 1.88%. As for `COc1ccc(OCCCCn2c(C3CC(=O)N(c4cccc(Cl)c4)C3)nc3ccccc32)cc1` (stereo not given), the inhibition is -14.9%.

With `COCCNC(=S)N/N=C(\C)c1ccc(C)c([N+](=O)[O-])c1`, the inhibition was active: 32.3%. On to `Cc1ccc(Cl)cc1NC(=O)CSC1=Nc2ccccc2C2=NC(Cc3ccccc3)C(=O)N12` (stereo not given), for which the inhibition turned out to be 3.76%. For `CC1(C)CC(=O)c2cc(-c3nc(-c4ccc(Cl)cc4)cs3)c(=O)n(-c3ccc(Cl)cc3)c2C1` the value was 1.13%; for `COc1ccc(NC(=O)Cn2nc(-c3ccncc3)ccc2=O)cc1Cl`, -13.2%; for `Cc1ccc(Nc2nc(C)cc(C)n2)c(C(=O)O)c1`, -14.7%. Next, `CCc1ccc(NC(=O)CN2C(=O)C3(SCC(=O)N3c3ccccc3)c3ccccc32)cc1` (stereo not given): -12.1%; `Cc1ccc[n+](C(C)C(=O)Nc2ccc(C)c([N+](=O)[O-])c2)c1` (stereo not given): active: 42.8%. For `COCCCNC(=O)CSc1c2c(nc3ccc(Cl)cc13)CCCC2` the value was 10.9%; for `CCN(c1ccc(OC)cc1)S(=O)(=O)c1nnc(NC(=O)c2ccccc2Cl)s1`, 11.4%. Consider `CCOc1ccc(C2c3c(oc4ccc(C)cc4c3=O)C(=O)N2Cc2ccc3c(c2)OCO3)cc1OC` (stereo not given), for which the inhibition is -2.92%. Turning to `Cn1c(=O)oc2cc(S(=O)(=O)NCCN3CCN(c4ccccc4F)CC3)ccc21`, the inhibition is active: 76.5%. As to `O=c1cc(-c2ccccc2)oc2cc(OCc3ccccc3)cc(O)c12`, the inhibition is active: 50.7%.

As for `Cc1nc(N2CCCC2)c2c(C(=O)N3CCN(c4cccc(Cl)c4)CC3)c(C)oc2n1`, the inhibition amounted to 5.02%. For `C=Cc1ccc(CSc2nc(-c3ccccc3Cl)nc3c2Cc2c(CO)cnc(C)c2O3)cc1`, the inhibition came out at 0.277%. For `CN(C)CCNC(=O)CCCN1C(=O)c2cccnc2Oc2ccc(Cl)cc21` the value was 6.51%; for `O=C1CC(c2nc3ccccc3n2CCCOc2ccccc2)CN1c1ccc(F)cc1` (stereo not given), 7.43%; for `Cc1cc(C)cc(-n2ccn(CC(=O)Nc3ccccc3C(F)(F)F)c(=O)c2=O)c1`, -4.24%. For `CCN(c1ccccc1)c1nnc(NC(=O)Nc2cccc(Br)c2)s1`, the inhibition is 0.668%. For `Cc1ccc(N2CC(C)Cn3c2nc2c3c(=O)n(CC(=O)O)c(=O)n2C)cc1` (stereo not given) the value was -3.17%; for `CSc1nc2sc3c(c2c(=O)n1-c1ccccc1C)CCCC3`, -1.11%; for `Cc1ccc(NS(=O)(=O)c2ccc3[nH]c4c(c3c2)CCCCCC4)cc1Cl`, -10.8%.

Consider `CCOC(=O)c1sc(NC(=O)c2cc(CC)on2)c(C(=O)OCC)c1C`, for which the inhibition is -20.5%. As to `COCC(=O)N1c2nc(C(C)C)nn2C2(CCCCC2)[C@@H]2CCCC[C@@H]21`, the inhibition was -2.06%. On to `Cc1c(C(=O)NCc2ccccc2)sc2nc3n(c(=O)c12)CCC3`, for which the inhibition stood at 12.3%. For the compound `COc1ccc(-c2cc(C3CCN(Cc4cccc(C(F)(F)F)c4)CC3)[nH]n2)cc1`, the inhibition is active: 59.2%. Take `CC(C)c1ccc(NC(=O)CN2C(=O)COc3ccc(S(=O)(=O)Nc4ccccc4)cc32)cc1`: the inhibition was -1.49%. `O=[N+]([O-])c1cc(-c2nc(-c3cccnc3)no2)ccc1NCc1ccccc1`: the inhibition came to 14.9%.

`CC(C)OCCCNC(=O)CCCn1c(SCC(=O)c2ccc(F)cc2)nc2c(sc3ccccc32)c1=O`: the inhibition was -4.56%. Regarding `O=C(Nc1ccc(Br)cc1)C1CCN(S(=O)(=O)c2cccc3nsnc23)CC1`, the inhibition is 24.1%. On to `COc1ccc(-c2nn3c(=O)cc(CN4CCN(C(=O)Nc5ccc(C)c(Cl)c5)CC4)nc3s2)cc1`, for which the inhibition was -19.3%. For `COc1ccc(CCNC(=O)c2nnc(Cc3ccc(Cl)cc3)o2)cc1OC` the value was 5.47%; for `O=C(NCC(c1ccco1)S(=O)(=O)c1ccc(Cl)cc1)c1ccccc1F` (stereo not given), 2.79%.

Turning to `Cc1ccc2oc(=O)c3cnn(CC(=O)Nc4cccc(C(F)(F)F)c4)c3c2c1`, the inhibition was 2.71%.

As to `CCCc1nnc(NC(=O)Cc2coc3cc(C)cc(C)c23)s1`, the inhibition is -16.7%. For `Cc1ccc(C(=O)N2CCc3cc(CNC(=O)COc4ccccc4)ccc32)cc1`, the inhibition came out at 15.5%.

On to `CCCN1CCN(CCCNC(=O)c2cnn(-c3ccc(F)cc3)c2-n2cccc2)CC1`, for which the inhibition came to 2.47%.

Take `CCOc1ccc(Nc2nc3ccccc3n3c(CC)nnc23)cc1`: the inhibition was 17.6%. Turning to `CCOC(=O)C1=C(c2ccccc2)NC(SCC(=O)Nc2ccc(C)cc2)=C(C#N)C1c1ccco1` (stereo not given), the inhibition is active: 54.9%. For `O=C(Cn1c(=O)n(-c2ccccc2)c(=O)c2sc3ccccc3c21)N1CCCC1` the value was 5.14%. Consider `COc1ccc(C)cc1NC(=O)NC1CCCCCCC1`, for which the inhibition was active: 32%. Next, `CSc1cccc(NC(=O)CN(c2ccccc2)S(=O)(=O)N(C)C)c1`: 0.0641%; `COc1ccc(C2C(=O)N(C3CCC(C)CC3)CC(=O)N2CCc2ccccc2)cc1OC` (stereo not given): 2.99%. As to `CC1CCN(S(=O)(=O)c2ccc3c(c2)N(CC(=O)NC(C)c2ccccc2)C(=O)CO3)CC1` (stereo not given), the inhibition is -12.5%.

`Cc1cc(N2CCCCC2)nc2ccc(NC(=O)c3cccc(F)c3)cc12`: the inhibition was determined as 11.2%. For `Nc1c(-c2nc(-c3ccc(Cl)cc3)cs2)c2ccccn2c1C(=O)c1ccc2c(c1)OCO2` the value was -5.97%.

Regarding `COCCCNC(=O)c1cc2c(=O)n3cccc(C)c3nc2s1`, the inhibition amounted to 1.26%. For `Cc1c(C)n(Cc2ccc(Cl)cc2)c2ccc(C(=O)NCCc3ccc(S(N)(=O)=O)cc3)cc12` the value was 18.4%; for `O=S(=O)(Nc1cccc(-c2ccc(N3CCCCC3)nn2)c1)c1cccc(F)c1`, -5.54%. In the case of `CCCCc1nc2ccccc2n2c(-c3ccc(C)cc3)c3c(=O)n(C)c(=O)n(C)c3c12`, the inhibition was -10.3%. In the case of `CC1CCc2c(sc(NC(=O)CCCOc3ccc(C(C)(C)C)cc3)c2C(N)=O)C1` (stereo not given), the inhibition came to 1.01%. For `O=c1c2ccccc2nc2n1CC/C2=C/N1CCN(c2cccc(C(F)(F)F)c2)CC1` the value was active: 48.3%; for `COc1ccc2ccccc2c1/C=N/NC(=O)c1ccc([N+](=O)[O-])cc1`, active: 70.5%. Next, `CCOc1ccc(-n2c(=O)c3c(C)c(C)sc3n(CC(=O)c3ccccc3)c2=O)cc1`: -2.66%; `CCc1ccc(-n2nc(C)c3c(C)cc(=O)n(CC(=O)Nc4ccc(C)c(F)c4)c32)cc1`: 14.1%; `Cn1c(=O)n(C)c2cc(NS(=O)(=O)c3ccc(Br)cc3)c(NCc3ccccc3)cc21`: -6.92%. For `CCN(CC)CCCNC(=O)c1c(C)oc2ncn(CC(C)C)c(=O)c12`, the inhibition was -5.57%. For `CN(C)c1ccc(NC(=O)CCSc2nc(-c3ccco3)cc(C(F)(F)F)n2)cc1`, the inhibition was 16%.

Regarding `CCCCN(C)S(=O)(=O)c1cc(-c2nnc3c4ccccc4c(C)nn23)ccc1C`, the inhibition was found to be 22.7%. For the compound `O=C(Cn1c(=O)n(Cc2nc(-c3ccccc3)no2)c(=O)c2cc3c(cc21)OCO3)Nc1ccc(Cl)cc1`, the inhibition is -1.6%. Next, `Cc1ccc(C)c(N2CCN(c3ccc(NC(=O)c4cccs4)cc3C(=O)O)CC2)c1`: -9.4%; `CCc1ccc(NC(=O)CC2C(=O)OCCN2CC)cc1` (stereo not given): -5.96%. Consider `CCOc1ccccc1NC(=O)C(CC(C)C)NS(=O)(=O)c1ccc2c(c1)CCN2C(C)=O` (stereo not given), for which the inhibition is -13.5%. As for `CCOC(=O)c1ccc(N2C(=O)c3n[nH]c(-c4cccs4)c3C2c2cccc(F)c2)cc1` (stereo not given), the inhibition was found to be 17.2%. For `CCc1ccccc1NC(=O)Cn1ncc2c(C)n(Cc3ccccc3F)c(C)c2c1=O`, the inhibition was -4.64%.
